According to the supplement of paper PMC11417369:
Some of the results follow.

The sequences below were run on PfAP2-HC AP2 domain (GST-tagged) (assay: gcPBM binding intensity (ln(normalized median fluorescence intensity)); higher = stronger DNA binding).
Outline: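 DNA-binding domains from P. falciparum, fused to GST and produced in E. coli, were put on an Agilent 4 × 180k double-stranded probe array for 1 h in 1× PBS holding 1% milk, 0.2 mg/ml BSA, 0.5% salmon testes DNA and 0.03% Triton X-100. Probes were primer-extended, 36 bp long and drawn from intergenic genomic regions, with negative controls included. After Alexa488 anti-GST antibody detection and a 488 nm scan, binding intensity was set as the highest Masliner-normalised natural-log median intensity across replicate spots of either probe orientation.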

Row | Sequence | gcPBM binding intensity (ln)
1 | AATATAAAAATGTTTACACACACACCGAAATATATT [CACACA_site8800] | 11.2
2 | TATGCCATGGCATAATGTACATAAGTGACCTCATAA [XGTACX_site1294] | 9.56
3 | GATTCGATCTATATATGTACACATAAATATTTTTTG [XGTACX_site7015] | 9.7
4 | TATATATTTATTTATTGTACACTCTTTAAGAATACA [XGTACX_site2569] | 9.6
5 | TATATATATATATATATATATATATATGTGTATGTA [TGCATGCA_negctrl_site255] | 10.3
6 | ATACACAAGAATATGTTGCACTTTTATATTCGTATG | 9.79
7 | AATAAAATTGACCATTCACACAAGAAAAATTAATCA [CACACA_site5636] | 9.7
8 | AAAAGAATTAATTTATGTACTAATTTCAAGAAATAA [XGTACX_site3241] | 9.35
9 | TCCTTACACACACTTTTTTTTTTTTTTTTTTCTACA [GTGCAC_negctrl_site263] | 9.93
10 | ATATATTATCAACTTACACACAGAAAACTATAATAA [CACACA_site6275] | 9.87
11 | CTTTTTCCTTTATAAAGTACTTAAAATATTTAGATA [XGTACX_site4259] | 9.32
12 | CTCGATCAAGTGTATGCATGTACCAGTGAACAAAAA [TGCATGCA_site635] | 9.46
13 | ATATATTTAAAAAAATGTACAAATCATAAATGCAAG [XGTACX_site4230] | 9.73
14 | TATAATGTTGATGATAGTACGTATGAGTTCAAAAAA [XGTACX_site3651] | 9.71
15 | AGAAATTAAATGTAAGCACACATAAATTATACACAT [CACACA_site9098] | 9.9
16 | AAAAAATTATACCAGTGTACTTTTTTGGTTTTTCTT [XGTACX_site2601] | 9.53
17 | AACTCTTAGAATGACGGTACAGTATAATAGGTGAAC [XGTACX_site7163] | 9.69
18 | ATATAATGAATTATTAGAAAATAAAATGAATAAAGT [CACACA_negctrl_site690] | 9.87
19 | ATATATATATATAGTGCACACTTAAGAATATAAAGA [CACACA_site4771] | 9.87
20 | TGTTATATAATTTAGCGTACAGGTTATAGGACGGAT [XGTACX_site8823] | 9.76
21 | AACTATTACTTTCTTTCACACATTTTTTTTTTTTTT [CACACA_site5355] | 9.75
22 | ATCATATAAACATATTGTACTTAAATACATAATATT [XGTACX_site3800] | 9.67
23 | TTTATTTATTTATGTGGTACTTCAAAAATATATACT [XGTACX_site355] | 9.62

Row | Sequence | gcPBM binding intensity (ln)
24 | GGATACGCTTTTGTACCACTCCCCCTTTTGGGAATA [CACACA_negctrl_site1363] | 9.4
25 | CAAACCCACGGACACACACACACAAAAATGATTAAA [CACACA_site5365] | 10.4
26 | AAATTGGGTACAAATACACACACATATATATATTAA [CACACA_site8745] | 10.5
27 | ATAGATCCTAATGTTGTGCACATGTAAATTAATATA | 9.71
28 | TTTATACAATAAAATGCATGCAAGTATCTATTTTAT [TGCATGCA_site210] | 9.65
29 | TCAGATATATAGAATACACACATGGATATAAGAAAT [CACACA_site7831] | 9.87
30 | TTTTTGTAATATTATGATGTCATATATATATATATA [XGTACX_negctrl_site618] | 9.6
31 | ATATTTTGTAACTATACACACATATATATATTATAA [CACACA_site3062] | 9.77
32 | CAAAAGAATATATGTAGTACATGTTGTAGATAATAT [XGTACX_site1044] | 9.83
33 | CGCGAAGTAGCATTCACACACAGCAAAATATAAATA [CACACA_site7608] | 9.99
34 | TATAATGAACATATGTGTACATATATTTTTTAAATT [XGTACX_site8736] | 9.64
35 | ACCATATAAATAAACACACACACACCGATATATATA [CACACA_site5310] | 10.6
36 | AAAAAACAAAAAAAAAAAAAAATAATACAATATAAT [CACACA_negctrl_site1630] | 9.56
37 | GCACAACATATATTATCACACACATATATATATATA [CACACA_site8619] | 10.6
38 | GTTTTTAGTATTTTTTGTACTTAATACATAGCCTTA [XGTACX_site7318] | 9.61
39 | AATTGAAAAATATATAAGAAGAAATATATATATGTT [GTGCAC_negctrl_site97] | 9.71
40 | AACACGCGCGGACACACACACACACCCACATATATA [CACACA_site5252] | 11.3
41 | TTAATATGAAATAAATGTACATAATACATAATAAAA [XGTACX_site6194] | 9.76
42 | TTTTCTTCATAAATGCTGCACTGGTTTAAGCATGAT | 9.3
43 | AAATAGAAGAAATATGCACACATACATTGAAATGTT [CACACA_site7996] | 9.78
44 | TTTATTAATAAACACACACACACACCCAAAATAAAA [CACACA_site7966] | 11
45 | AAAGAAAAAAAAATTACACACATATATTATATATAT [CACACA_site3211] | 9.73
46 | CCTTAATATTTTTGAAGTACATATTTATTTTACAAG [XGTACX_site3049] | 9.5

Row | Sequence | gcPBM binding intensity (ln)
47 | ATTTATATCTCCATATGTTCAAAACTTTCACAAATA [TGCATGCA_negctrl_site108] | 9.3
48 | TATTAACAAATTTATGTGCACTGAGGACAAATATAT | 9.73
49 | AATATAAATTAATTTACACACTAAAAAATATATATA [CACACA_site3778] | 9.77
50 | AAAATAAGTAATTACTAATATATAAATTAATAATTA [CACACA_negctrl_site1602] | 9.61
51 | TTTTAATTAGCTAGACGTACAATAATATACAAATAT [XGTACX_site6068] | 9.5
52 | CATATGTAGGGAACAATATAATATGCTTTGAATATG [GTGCAC_negctrl_site524] | 9.57
53 | ATTTTTTTAAGATAAGAAAAATAAAGTGTGGATATT [XGTACX_negctrl_site476] | 9.39
54 | AGCACACAAAAAAAAAAAAAAAAAAAAAAAGGAATG [GTGCAC_negctrl_site73] | 9.67
55 | TATGTATTCATATGTTGTACATTATATATAATAAGT [XGTACX_site6589] | 9.68
56 | AAATCAGAACCTATTTGTACATATACAAAAATGATT [XGTACX_site2421] | 9.62
57 | ATTATGTATACATAAACACACATATTTATAAAAAAA [CACACA_site6261] | 9.82
58 | ATATATTTATATATATGTACATATTATGTTAAGAAA [XGTACX_site1111] | 9.69
59 | TTCCTTATTATTATTTTACACACGTCCTAATAAGAG [CACACA_site8364] | 9.88
60 | GCTTGTACATTTTTAAAAAATGACTTCGAAAGGAAT [CACACA_negctrl_site453] | 9.41
61 | TTTATGCATAGAGAAACATGCAAGAAAGATGCAAAA [TGCATGCA_site726] | 9.63
62 | ATACTCACGTGACACACACACAATATAAATAAATAT [CACACA_site7862] | 10.6
63 | TGTATATATATCTCAGTGCATTGCAAATTAAAAATT [GTGCAC_site9646] | 9.6
64 | TATAATAATCTAATCTGTAGTTTTTTTTTTTTTTTT [CACACA_negctrl_site1206] | 9.37
65 | GGCTTTTTTTAATATGCACACATATATTTTATATAT [CACACA_site8647] | 10
66 | AAAAAAAAACAGAAAACACACAAATTATCTTATAAT [CACACA_site4326] | 10
67 | TTTCTAAATAATTATAATGAATCTGCAAACAAGCAT [XGTACX_negctrl_site391] | 9.05
68 | ATAAAAATAAACATACGTACTTACACGAATATACAT [XGTACX_site5989] | 9.77
69 | CTTGAAAAAATAAAAACACACAATGTGTTTTTGAAT [CACACA_site3283] | 9.68

Row | Sequence | gcPBM binding intensity (ln)
70 | TTAGATTTAAATATCATACACACTTTATATATAATA [CACACA_site959] | 9.57
71 | ATATTACTATATTATTGTACGTTAAAAAAAAAAAAT [XGTACX_site8734] | 9.55
72 | AATAAATAAATAAATAAATATATATATATATATATA [GTGCAC_negctrl_site224] | 9.58
73 | TTATATTAAAAAAGATGTACGTTTAGGAAAAATATA [XGTACX_site7456] | 9.34
74 | AAATTCACAATGTTTGGTACACATAAAAAAAAAAGA [XGTACX_site7109] | 9.66
75 | AAAAATTTTTTTTTTTTTTTAAATAATAAAAATGAA [CACACA_negctrl_site1435] | 9.21
76 | TATTATTATTTTATGGTGCAAAAAAAAAAAAAAAAA | 8.83
77 | AACATACGACAATACGCACACATATCTGTACATATT [CACACA_site5115] | 10.2
78 | TTTATATATTTTGTCGTGCACATTTGGAAAATTACA [GTGCAC_site9776] | 9.59
79 | TATATATTTATTTATAGTACACTATTTATGAAAACC [XGTACX_site3062] | 9.43
80 | CATTATTATTAACATACACACGTGTTATATACCCCC [CACACA_site9365] | 10.1
81 | TAACATAAATTTAGGAGTACACTTTTTATACATACA [XGTACX_site4066] | 9.62
82 | TATCACTATAGACAAGCATGCATATGTACTAATATC [TGCATGCA_site1020] | 9.7
83 | TTTATATTTATTGTTGTGCACAGAACCATATTCGTT | 9.9
84 | AATAAAATGGAATACGGTACACATAATCCTAAAATG [XGTACX_site926] | 9.81
85 | ATATTATAAAATAAAAGTACACAATTATATATATAT [XGTACX_site8812] | 9.75
86 | TATTTTTAAAATTAAATGAATAAATAAATAAATATA [XGTACX_negctrl_site553] | 9.39
87 | ATATATATCGGACACACACACATGTTTTAAAACTAT [CACACA_site4218] | 10.8
88 | CTTTTATTCAAAAGATGTACTTAAATATATATCTAA [XGTACX_site4326] | 9.39
89 | TGCAGTCTGGAGAAACGTACACAGTATCTGGTAACA [XGTACX_site2014] | 9.48
